According to EPA's CvTdb concentration-time database:

Tests used:
Mouse [1] = experiment: concentration in plasma after dosing; details: 2.5 min; dosed: Benzophenone; 60 mg/kg; oral; Female; B6C3F1
Mouse [2] = experiment: concentration in plasma after dosing; details: 1 h; dosed: Benzophenone; 60 mg/kg; oral; Female; B6C3F1
Rat [3] = experiment: concentration in plasma after dosing; details: 16 h; dosed: Benzophenone; 5 mg/kg; oral; Female; F344
Mouse [4] = experiment: concentration in plasma after dosing; details: 10 min; dosed: Benzophenone; 15 mg/kg; oral; Female; B6C3F1
Rat [5] = experiment: concentration in plasma after dosing; details: dosed: Benzophenone, 10 mg/kg, oral, Male, F344
Mouse [6] = experiment: concentration in plasma after dosing; details: 2 h; dosed: Benzophenone; 60 mg/kg; oral; Female; B6C3F1
Rat [7] = experiment: concentration in blood after dosing; details: 0.5 h; dosed: Benzophenone; 10 mg/kg; oral; Female; F344
Mouse [8] = experiment: concentration in plasma after dosing; details: 2.5 h; dosed: Benzophenone; 15 mg/kg; iv; Female; B6C3F1
Mouse [9] = experiment: concentration in plasma after dosing; details: 1.5 h; dosed: Benzophenone; 15 mg/kg; oral; Female; B6C3F1
Mouse [10] = experiment: concentration in plasma after dosing; details: 0.125 h; dosed: Benzophenone; 60 mg/kg; oral; Male; B6C3F1
Mouse [11] = experiment: concentration in plasma after dosing; details: 0.25 h; dosed: Benzophenone; 15 mg/kg; iv; Female; B6C3F1
Mouse [12] = experiment: concentration in plasma after dosing; details: 5 min; dosed: Benzophenone; 30 mg/kg; oral; Male; B6C3F1
Rat [13] = experiment: concentration in plasma after dosing; details: 16 h; dosed: Benzophenone; 10 mg/kg; oral; Female; F344
Rat [14] = experiment: concentration in plasma after dosing; details: dosed: Benzophenone, 10 mg/kg, oral, Male, F344; remark: listed apart in the source
Mouse [15] = experiment: concentration in plasma after dosing; details: 0.5 h; dosed: Benzophenone; 60 mg/kg; oral; Female; B6C3F1
Mouse [16] = experiment: concentration in plasma after dosing; details: 0.5 h; dosed: Benzophenone; 15 mg/kg; oral; Female; B6C3F1
Mouse [17] = experiment: concentration in plasma after dosing; details: 2 h; dosed: Benzophenone; 60 mg/kg; oral; Male; B6C3F1
Mouse [18] = experiment: concentration in plasma after dosing; details: 2 h; dosed: Benzophenone; 30 mg/kg; oral; Male; B6C3F1
Rat [19] = experiment: concentration in blood after dosing; details: 10 min; dosed: Benzophenone; 10 mg/kg; oral; Female; F344
Mouse [20] = experiment: concentration in plasma after dosing; details: 1.5 h; dosed: Benzophenone; 30 mg/kg; oral; Female; B6C3F1
Mouse [21] = experiment: concentration in plasma after dosing; details: 2 h; dosed: Benzophenone; 30 mg/kg; oral; Female; B6C3F1
Mouse [22] = experiment: concentration in plasma after dosing; details: 1.5 h; dosed: Benzophenone; 15 mg/kg; oral; Female; B6C3F1; remark: listed apart in the source
Mouse [23] = experiment: concentration in plasma after dosing; details: 4 min; dosed: Benzophenone; 15 mg/kg; iv; Male; B6C3F1
Mouse [24] = experiment: concentration in plasma after dosing; details: 2 h; dosed: Benzophenone; 15 mg/kg; oral; Female; B6C3F1
Mouse [25] = experiment: concentration in plasma after dosing; details: 0.5 h; dosed: Benzophenone; 30 mg/kg; oral; Female; B6C3F1
Mouse [26] = experiment: concentration in plasma after dosing; details: 0.25 h; dosed: Benzophenone; 15 mg/kg; oral; Female; B6C3F1
Rat [27] = experiment: concentration in blood after dosing; details: 5 min; dosed: Benzophenone; 10 mg/kg; oral; Male; F344
Mouse [28] = experiment: concentration in plasma after dosing; details: 1 h; dosed: Benzophenone; 15 mg/kg; oral; Female; B6C3F1

O=C(c1ccccc1)c1ccccc1 [Benzophenone]
Details	concentration in blood [ng/mL]	concentration in plasma [ng/mL]
Mouse [1]	–	376
Mouse [2]	–	708
Mouse [4]	–	564
Mouse [6]	–	358
Mouse [8]	–	144
Mouse [9]	–	119
Mouse [10]	–	3260
Mouse [11]	–	2110
Mouse [12]	–	537
Mouse [15]	–	913
Mouse [16]	–	245
Mouse [17]	–	428
Mouse [18]	–	121
Mouse [20]	–	692
Mouse [21]	–	146
Mouse [22]	–	96.1
Mouse [23]	–	5450
Mouse [24]	–	132
Mouse [25]	–	603
Mouse [26]	–	446
Mouse [28]	–	166
Rat [3]	–	21.8
Rat [7]	1800	–
Rat [13]	–	37.8
Rat [19]	1520	–
Rat [27]	1810	–

concentration in plasma [ng/mL]
Details	Rat [5]	Rat [14]
6 h	130	193
10 min	348	402
